Test results taken from a collection of fitness landscapes (doi:10.1126/science.1257360).
This is one part of the list.

B1: PhoQ; a variant is named by its letters at X, in order, P23837 (parent)
chain: MKKLLRLFFPLSLRVRFLLATAAVVLVLSLAYGMVALIGYSVSFDKTTFRLLRGESNLFYTLAKWENNKLHVELPENIDKQSPTMTLIYDENGQLLWAQRDVPWLMKMIQPDWLKSNGFHEIEADVNDTSLLLSGDHSIQQQLQEVREDDDDAEMTHSVAVNVYPATSRMPKLTIVVVDTIPVELKSSYMVWSWFIYVLSANLLLVIPLLWVAAWWSLRPIEALAKEVRELEEHNRELLNPATTRELTSLVRNLNRLLKSERERYDKYRTTLTDLTHSLKTPLXXLQXXLRSLRSEKMSVSDAEPVMLEQISRISQQIGYYLHRASMRGGTLLSRELHPVAPLLDNLTSALNKVYQRKGVNISLDISPEISFVGEQNDFVEVMGNVLDNACKYCLEFVEISARQTDEHLYIVVEDDGPGIPLSKREVIFDRGQRVDTLRPGQGVGLAVAREITEQYEGKIVAGESMLGGARMEVIFGRQHSAPKDE

Variants of: B1
Assay: enrichment ratio after two sorts for PhoP signalling (ratio (wild type AVST 3.29)); higher = more functional
Conditions: with PhoP (E. coli)
With SHYW the enrichment ratio was at most 0.25.
RFAH gave an enrichment ratio of at most 0.25.
QKYW gave an enrichment ratio of at most 0.25.
Work on SLWD yielded an enrichment ratio of at most 0.25.
PDRM gave an enrichment ratio of at most 0.25.
KYMV was tested, and the enrichment ratio was at most 0.25.
YPAI showed an enrichment ratio of at most 0.25.
Variant IGNP has an enrichment ratio of at most 0.25.
PNTS showed an enrichment ratio of at most 0.25.
Work on MWWL yielded an enrichment ratio of at most 0.25.
ESWV gave an enrichment ratio of at most 0.25.
HFQK was tested, and the enrichment ratio was at most 0.25.
Variant FRMT has an enrichment ratio of at most 0.25.
RRYP showed an enrichment ratio of at most 0.25.
Work on QMFF yielded an enrichment ratio of at most 0.25.
QGHM was tested, and the enrichment ratio was at most 0.25.
EMPF was tested, and the enrichment ratio was at most 0.25.
NIWM gave an enrichment ratio of at most 0.25.
PIWS gave an enrichment ratio of at most 0.25.
For MVVG, the enrichment ratio was at most 0.25.
For YDSL, the enrichment ratio was at most 0.25.
WCFD was tested, and the enrichment ratio was at most 0.25.
FACV gave an enrichment ratio of at most 0.25.
With DTIS the enrichment ratio was at most 0.25.
In the case of MIRM, the enrichment ratio is reported as at most 0.25.
In the case of QLHM, the enrichment ratio is reported as at most 0.25.
Variant VYDI has an enrichment ratio of at most 0.25.
Variant KFHR has an enrichment ratio of at most 0.25.
In the case of NANL, the enrichment ratio is reported as at most 0.25.
Variant DTSD has an enrichment ratio of at most 0.25.
For RKVM, the enrichment ratio was at most 0.25.
QCMV was tested, and the enrichment ratio was at most 0.25.
SEFH gave an enrichment ratio of 4.4.
For VSGF, the enrichment ratio was at most 0.25.
In the case of LWTT, the enrichment ratio is reported as at most 0.25.
Work on IWGA yielded an enrichment ratio of at most 0.25.
In the case of HTRM, the enrichment ratio is reported as at most 0.25.
With FNWG the enrichment ratio was at most 0.25.
With ADCD the enrichment ratio was at most 0.25.
For TFHF, the enrichment ratio was at most 0.25.
For MYVP, the enrichment ratio was at most 0.25.
NFAS showed an enrichment ratio of at most 0.25.
For RGYY, the enrichment ratio was at most 0.25.
SKGR was tested, and the enrichment ratio was at most 0.25.
In the case of AVSL, the enrichment ratio is reported as 7.58.
In the case of NKLL, the enrichment ratio is reported as at most 0.25.
For RPGC, the enrichment ratio was at most 0.25.
For PCPA, the enrichment ratio was at most 0.25.
For KICI, the enrichment ratio was at most 0.25.
In the case of NRTM, the enrichment ratio is reported as at most 0.25.
With THQC the enrichment ratio was 13.1.
Variant TGWN has an enrichment ratio of at most 0.25.
YSIA showed an enrichment ratio of at most 0.25.
For KCDY, the enrichment ratio was at most 0.25.
LCFG gave an enrichment ratio of at most 0.25.
In the case of VMYN, the enrichment ratio is reported as at most 0.25.
Variant NPSN has an enrichment ratio of at most 0.25.
GPMT showed an enrichment ratio of at most 0.25.
PGWL showed an enrichment ratio of at most 0.25.
HHII was tested, and the enrichment ratio was at most 0.25.
For YSNW, the enrichment ratio was at most 0.25.
With LVAH the enrichment ratio was at most 0.25.
With PLQV the enrichment ratio was at most 0.25.
PFQD was tested, and the enrichment ratio was at most 0.25.
Variant WLWI has an enrichment ratio of at most 0.25.
FYMV showed an enrichment ratio of at most 0.25.
HAIH was tested, and the enrichment ratio was at most 0.25.
Variant NYVY has an enrichment ratio of at most 0.25.
MCPN showed an enrichment ratio of at most 0.25.
VDRH showed an enrichment ratio of at most 0.25.
Work on EHQI yielded an enrichment ratio of at most 0.25.
Variant LPIP has an enrichment ratio of at most 0.25.
IAEY showed an enrichment ratio of at most 0.25.
In the case of TRPM, the enrichment ratio is reported as at most 0.25.
Work on IWRC yielded an enrichment ratio of at most 0.25.
For APRK, the enrichment ratio was at most 0.25.
HLHY showed an enrichment ratio of at most 0.25.
Variant GITP has an enrichment ratio of at most 0.25.
For YGYY, the enrichment ratio was at most 0.25.
Variant EPHR has an enrichment ratio of at most 0.25.
RRFC showed an enrichment ratio of at most 0.25.
Work on GMKP yielded an enrichment ratio of at most 0.25.
FCQG showed an enrichment ratio of at most 0.25.
SGSE showed an enrichment ratio of 15.4.
